Laboratory results as given in article PMC6919601, “Identification of Plasmodium dipeptidyl aminopeptidase allosteric inhibitors by high throughput screening” (PLoS ONE, 2019).
Screen size: about 110,000 compounds; about 230 (0.21%) showed an effect of 50% or more. Some of the results follow.

These compounds were tested against DPAP1 (Plasmodium falciparum, UniProt Q8IIJ9) (assay: primary screen, percent inhibition; read by cleavage of a fluorogenic dipeptide substrate; higher = more effect of the substance).
Chain of DPAP1 (Q8IIJ9 whole entry, looked up): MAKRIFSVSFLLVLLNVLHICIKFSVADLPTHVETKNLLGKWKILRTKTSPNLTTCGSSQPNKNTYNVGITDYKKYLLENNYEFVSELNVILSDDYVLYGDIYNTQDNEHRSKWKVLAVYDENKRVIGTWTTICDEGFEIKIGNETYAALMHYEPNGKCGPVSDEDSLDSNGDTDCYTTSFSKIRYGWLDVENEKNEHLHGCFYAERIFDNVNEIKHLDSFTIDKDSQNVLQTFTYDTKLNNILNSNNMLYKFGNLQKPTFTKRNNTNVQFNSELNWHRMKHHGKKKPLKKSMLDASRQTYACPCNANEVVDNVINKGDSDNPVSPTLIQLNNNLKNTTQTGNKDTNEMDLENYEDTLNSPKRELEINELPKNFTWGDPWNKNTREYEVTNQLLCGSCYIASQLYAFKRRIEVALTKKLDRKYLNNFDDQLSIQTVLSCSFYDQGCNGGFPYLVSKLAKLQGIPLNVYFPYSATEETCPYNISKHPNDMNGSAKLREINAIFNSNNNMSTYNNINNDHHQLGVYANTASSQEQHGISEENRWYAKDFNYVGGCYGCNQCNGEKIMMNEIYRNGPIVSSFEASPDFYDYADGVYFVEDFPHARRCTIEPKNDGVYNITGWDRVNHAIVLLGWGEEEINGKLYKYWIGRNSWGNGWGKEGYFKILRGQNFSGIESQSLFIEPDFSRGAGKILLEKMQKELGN
Design: species or system P. falciparum D10 trophozoite lysates; single well
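Also: 30 min substrate incubation versus DMSO and 10 µM JCP410 controls.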

SMILES | % Inhibition @ 10 uM
CN1C(=O)C(O)(CC(=O)c2ccc3c(c2)CCCC3)c2ccccc21 (stereo not drawn) | -3.5%
O=C(O)COC(c1ccccc1F)c1ccccc1F | -7.96%
CCCN(CCO)Cc1c(F)cccc1F | 1.08%
COc1ccc(C2NC(=O)c3c(sc4c3CCCC4)N2)c(OC)c1 (stereo not drawn) | 0.147%
C=CCN(Cc1nc(-c2ccc(OC)cc2)no1)C(=O)NC1CCCCC1 | -3.49%
COc1cc(OC)c(OC)cc1CN1CCN(C(=O)c2ccc(F)cc2)CC1 | -6.4%
Cc1c(CN2CCCCC2)c(=O)n(-c2ccccc2)n1C | 5.03%
C#CC(CO)N(CCN(Cc1ccccc1)C(C#C)CO)Cc1ccccc1 (stereo not drawn) | 4.73%
Cc1cc(-c2ccccc2)nn1C(CC(=O)O)C(=O)O (stereo not drawn) | -0.467%
OCCN(Cc1ccccc1)Cc1ccc(Cl)cc1 | -6%
CCN1C(=O)S/C(=C/c2cn(C(C)C)c3ccccc23)C1=O | -5.7%
CCN(Cc1ccccc1)C(=O)CSc1nnc(C)n2c1cc1sccc12 | -10.9%
CCCc1nnc(NC(=O)CSc2ncc(-c3ccccc3)nn2)s1 | 4.54%
N#C/C(=C/c1ccccc1F)c1nc(-c2ccc([N+](=O)[O-])cc2)cs1 | 0.526%
CCOc1ccc(C2=C(C=C3C(=O)NC(=O)NC3=O)C(c3ccccc3C)c3ccccc3O2)cc1 (stereo not drawn) | 2.94%
COc1ccc(-c2cc(C(=O)Nc3ccn(Cc4ccc(C)cc4)n3)no2)cc1 | -2.65%
CCc1ccc(CNC(=O)C2CCN(c3nnc(C)c4c(C)n(-c5ccccc5)nc34)CC2)cc1 | 7.67%
COc1ccc(C(=O)N2CCN(c3cccc(Cl)c3)CC2)cc1 | -2.6%
CN(CCNC(=O)Cn1ncc2c3ccccc3nc-2c1O)Cc1ccccc1 | -2.74%
COc1ccccc1N1CCN(C(=O)c2cccc(Cl)c2)CC1 | -4.89%
CC(C)Cc1ccc(C(C)C(=O)Nc2ccccc2O)cc1 (stereo not drawn) | -5.2%
CC(=O)c1ccc(NC(=O)C(Cc2ccccc2)N2C(=O)c3ccccc3C2=O)cc1 (stereo not drawn) | -4.16%
COc1ccc(/C=C2/C(=N)N3C(c4ccccc4)=CSC3=NC2=O)cc1Br | 1.52%
Cc1cccc(C)c1N1C(=O)C2C3CCC(C3)C2C1=O (stereo not drawn) | -7.76%
N#Cc1c(NC(=O)CN2CCCCC2)sc2c1CCC2 | 2.38%
COC(=O)c1sccc1NC(=O)Cc1noc2ccccc12 | -6.66%

SMILES | % Inhibition @ 10 uM
Cn1c(=O)c2nc(-c3ccccc3)c(-c3ccccc3)nc2n(C)c1=O | 4.03%
COC(=O)C1=C(C)NC(=O)/C1=C\c1ccccc1OCc1ccccc1 | 0.222%
CCCCc1ccc(NC(=O)c2cccnc2Cl)cc1 | 0.812%
Cc1cc2nc(O)c(O)nc2cc1S(=O)(=O)N(CC(C)C)CC(C)C | 3.06%
CCN(CCN(C)C)Cc1cccc(Cl)c1Cl | -3.57%
CCc1ccc(C2CC(c3cccc(OC)c3)Nc3ncnn32)cc1 (stereo not drawn) | -11%
Cc1nc(SCc2cccc(F)c2)nc(O)c1C#N | -7.57%
CCCc1nc2ccccc2c(=O)n1-c1ccc(OC)cc1 | -5.23%
O=C(CCCN1C(=O)CSc2ncccc21)NCCC1=CCCCC1 | -0.637%
CC(C)CSC1=NSC2=NC(=O)/C(=C\c3ccco3)C(=N)N12 | -4.65%
Cc1ccnc(NS(=O)(=O)c2ccc(N)cc2)c1 | 4.8%
Cc1cccc(Oc2ccc(NC(=O)CCC(=O)O)cc2)c1 | -2.19%
CCOCCCNc1nc2c(-c3ccccc3)nnn2c2ccccc12 | -2.92%
CC(C)NS(=O)(=O)N1CCN(c2ccncc2S(=O)(=O)N2CCOCC2)CC1 | 1.72%
Cc1cc(-c2ccc(C)c(S(=O)(=O)N3CCCN(Cc4ccc(F)cc4)C3)c2)on1 | -6.07%
Cc1ccc2c(CNCc3ccc(C)o3)c(C(=O)O)n(Cc3ccccc3)c2c1 | 2.6%
CCc1ccc(NC(=O)CSc2nc(O)cc(-c3ccccc3)n2)cc1 | 4.75%
CC(=O)N1CCC(NCc2ccc(Cl)cc2)CC1 | -2.21%
COc1cccc(C(=O)N2c3ccccc3C(Nc3ccccc3)CC2C)c1 (stereo not drawn) | -0.413%
O=C(NC1CCc2ccccc21)C1CCCN(c2cnccn2)C1 (stereo not drawn) | 8.16%
CC(C)NC(=O)C(=O)NCCc1ccccc1 | 1.29%
Cc1cc(C)cc(NS(=O)(=O)c2ccc(NC(=O)c3ccccc3C(=O)O)cc2)c1 | -4.02%
CCN(CC)CCN(C)Cc1ccc(Br)cc1 | -2.34%
Cc1ncc(CO)c2c1Oc1nc(-c3ccccc3)nc(SCC(=O)N3CCOCC3)c1C2 | 3.77%
CCOC(=O)c1c(-c2ccccc2)csc1NC(=O)CN1CCCCC1 | -1.29%
